# Reference: the supplement of paper PMC10126150
# Sequences with one replicate were seen in a single cluster, so their values are uncertain.
# System: ATP
# Assay: switch fluorescence ratio, 500 uM ATP over buffer (Cy3 cluster intensity, sum of 5 cycles each) (fold (ratio)); higher = stronger signal-on switching upon ATP binding; sequences stand for … in TCGTCGGCAGCGTCAGATGTGTATAAGAGACAGTTTTTTTTTTTTTTTTTTTTTTTTT…TC
# Conditions: aptamer strand: ATP DNA aptamer (quencher-CACCTGGGGGAGTATTGCGGAGGAAGG + anchor), 100 nM annealed; ATP concentration: 500 uM; one replicate
# How it was run: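 Cy3-labelled switching-strand clusters on a modified Illumina MiSeq flow-cell were annealed to 100 nM quencher-labelled ATP aptamer and imaged first in selection buffer, then after 15 min with 500 uM ATP at 22 °C. NaOH stripping and re-annealing separated each of five buffer/ATP cycles, and clusters outside 100-1000 RFU were excluded. The fluorescence ratio sums target-cycle Cy3 intensity over buffer-cycle Cy3 intensity per cluster and averages it per switch-domain sequence.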
# 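Also: ATP exposure 15 min at 22 °C before imaging.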
row,Sequence,switch fluorescence ratio
1,AGTGCAAGTT,0.949
2,GCAGCCAAAT,1.01
3,ACTTCGACTC,1.16
4,TGGTGGGACA,0.964
5,AACGATAAGC,1.06
6,GTTTTTCGAG,1.01
7,CGGTTAAATG,1.04
8,GATTTCACTT,0.978
9,ACTCTTGGAC,1.09
10,AGCATGTATG,0.963
11,TGATGGCTCT,1.02
12,AAAACATTCT,1.06
13,CTCCCAGTCT,1.47
14,GGCACTCCGT,1.05
15,TGCAACCGGG,1.07
16,TTAATTTCGT,1.01
17,CCTAAACCCT,1.06
18,AGAACAAGGG,0.964
19,TGTTAAATCT,0.988
20,AGTGCCAGTC,1.04
21,TATATTAT,1
22,GCCCATGCCT,1
23,TACGGCCATT,1.02

row,Sequence,switch fluorescence ratio
1,TGGCTTAGG,0.941
2,AAACGTTATT,1.08
3,TGCGCAATCA,1.35
4,CGGTATAGC,1.17
5,GACGGCGACG,0.939
6,TAGCATCCAG,1.03
7,CGGCATGAG,0.979
8,TTACCCTCTG,1.09
9,TGTTGATTAG,1.01
10,TCTCTCAT,0.975
11,AAGTGAAGTA,0.972
12,GAGTCCTGTG,1.03
13,AGAAGCTGTT,1.14
14,TCAGTAATC,1.24
15,AGTTTGTTTC,1.04
16,ATTGGGAATT,1.02
17,CGTAGCGGAC,4.4
18,ATGTTTTCGA,1.02
19,GCACACAGGC,1.06
20,GTTGTAAGAG,1.02
21,GTCCGTAGAG,1.04
22,GATGGCCGGC,0.917
23,GTCAGTTCGA,0.995

row,Sequence,switch fluorescence ratio
1,CAGTAGAGT,1.14
2,CCCGGTGGTT,1.09
3,ATGTTTAGTT,1.02
4,GTTGTCCGCC,1.02
5,TTATGGCTAC,1
6,AACACATTTC,1.06
7,CCCCTCTTTA,1.03
8,TCAATGGTCT,1
9,GAGAAGGAAC,1.04
10,GTACCACGCG,1.05
11,TACGTTCATG,0.984
12,TATTGCTAC,2.1
13,GATGTCAT,1.01
14,ATCGAGGCTG,1.22
15,CCAACTTGTG,1.04
16,GGGCTCATA,1.03
17,AACATAGAGA,0.963
18,GTGTAATGAT,1.01
19,GTGAGTACGG,1.03
20,TTAAGTTTCG,0.987
21,TTTGCCACCC,0.989
22,ATGTGAGGGC,1.08
23,CGGGTCGG,0.967

row,Sequence,switch fluorescence ratio
1,ACCGAGTCAT,1.06
2,GTTGAGGTTT,0.954
3,TGCGGCCACC,0.953
4,TGTGTGGTG,0.961
5,GAGATCGGCA,0.969
6,GGAAGTTTTA,0.978
7,ACATAAGATT,1.04
8,ATGCCGGAAT,1
9,CAGTTGGTAC,1
10,GAGAATGGAT,1.02
11,AGGAATGTCT,0.937
12,GAGAAAATAG,1.01
13,TTAACGTATT,1.11
14,GGTATAAGTA,0.987
15,CAGGGCGTAG,0.971
16,CGCGCTAACA,1.02
17,GATGACGGG,1.03
18,TTAAGGATAA,1.02
19,TGCTTA,0.958
20,CTGACTAGGC,1.09
21,GCGCAGGCCT,1.02
22,CCCACGTGGT,1
23,AATCGCGTA,1.01

row,Sequence,switch fluorescence ratio
1,TGACGAGGAG,0.972
2,CGGACGGTAT,1.16
3,AAGGAGGAG,0.96
4,TCTGACGGTA,1.59
5,ACGCTGTCGT,1.01
6,CAAGGGTCTT,1.01
7,CCCGGGGATG,1.01
8,AAACCGATC,2.52
9,ATATAGGGC,1.02
10,GACCGGGC,0.966
11,TTGAACCGGA,1.45
12,TTACCAAGTA,1.1
13,ACATAGAATG,0.982
14,TCTCCTAAG,1.04
15,TCCTTCCG,2.39
16,TTCTCGAAGG,0.959
17,TCCAGAGATT,1.05
18,TTGAAGTGTT,0.98
19,GGCTGCGGGG,0.98
20,GAATAGCTGC,1.03
21,GGATAAAGTC,1
22,CCTGCGTGAC,4.56
23,TTCCGCGTAT,2.42

row,Sequence,switch fluorescence ratio
1,TCGATGTAAT,1.28
2,ACAACGGGGC,1.04
3,TAGCGGTGCA,1.03
4,TTTCGGACGG,1.02
5,ACCAGGGATA,1.04
6,TTATAATCTT,0.995
7,GCTCTTAT,1.01
8,TGTCGCCGTA,1.06
9,TAGCTACGAC,1.39
10,AAAGGATTGT,0.94
11,CGTGTGCATC,1.06
12,CCCCGGTCAA,4.32
13,GAGGGACGGA,0.997
14,TTCTTTCACC,0.986
15,ATCGCGATTG,1.02
16,GGAACAGGGA,0.955
17,ATTTTTTT,0.987
18,GATCGCATG,1.2
19,AACGTCTAAC,1.16
20,TAAGATTACG,1.02
21,TACGCACCGT,1.61
22,CGTGTGATGA,1.07
23,GAGCGCTTCG,0.967

row,Sequence,switch fluorescence ratio
1,GTACAGCTAT,1.05
2,TCCCGTTCTG,1.01
3,CAAAGTTAG,1.05
4,GAAGCCTCTA,1.03
5,AGAAACCGCT,1.29
6,ACTAATTTAC,1.15
7,CGGTCACGAT,1.03
8,TGATTATAAG,0.953
9,GAAGCGTTTT,0.97
10,TGTTATAGT,1.02
11,ACAATAGCGT,1.07
12,AACGTTGATC,0.997
13,GTAGATGGGT,1
14,CTTAGCGTCC,1
15,GAGTACCGGC,0.943
16,CTAATGATA,1.07
17,AGCAGTGCTA,1.11
18,CGGGTTGGCC,1
19,ATCACGGGTC,1.01
20,CATGAAGC,1.03
